According to PubChem BioAssay AID485360 (National Center for Advancing Translational Sciences (NCATS), 2010):
The whole screen tested about 230,000 compounds, of which about 1,500 (0.65%) were called active. The inconclusive results got no clear call from the source; some entries with a clear call stand among them for comparison. The call rests on the fitted dose curve; in most records, active means well fitted inhibition curve with a large enough effect; inconclusive means small, poorly fitted or top-dose-only effect; inactive means no such curve, though single readings can be large or run the other way. Potencies beside an inconclusive call are fits to weak or partial responses and may not hold up.

The compounds below were run against Lethal(3)malignant brain tumor-like protein 1 (Homo sapiens) (UniProt Q9Y468) (assay: qHTS Assay for the Inhibitors of L3MBTL1). Conditions: AlphaScreen L3MBTL1–H3K9me1 peptide binding; activity, negative = inhibition: at 57.1 µM (top of the series).
In short: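 AlphaScreen assay: L3MBTL1 (50 nM final) was preincubated 30 min at room temperature with biotinylated H3(1-15)K9me1 peptide (75 nM final), then 30 min with library compounds; streptavidin donor and nickel chelate acceptor beads (10 ug/mL final) added, 30 min dark.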
Further: nearly all actives have a fitted effect of over 60% in size.
On the % scale 0 is the no-effect control and ±100 the full control effect; potency means the concentration at half of the fitted maximal effect; tags describe the fitted curve by direction and shape.

Row | Structure (SMILES) | Potency | activity, negative = inhibition
1 | O=[N+]([O-])c1cc(-c2ccc([As](=O)(O)O)cc2)ccc1[As](=O)(O)O | active: 22.4 µM | 
2 | C/C1=C\[C@@H](C)C/C=C/[C@H]2[C@@H]3O[C@]3(C)[C@@H](C)[C@H]3[C@H](Cc4c[nH]c5ccccc45)NC(=O)[C@]32C(=O)/C=C/C(=O)[C@@H]1O | inconclusive: 14.1 µM [inhibitor, partial curve] | 
3 | O=c1[nH]c(=S)n(Cc2ccc(F)cc2)c(O)c1/C=N/N1CCCCC1 | inconclusive: 35.5 µM [inhibitor, single point] | 
4 | S=C1Nc2ccccc2Sc2ccccc21 | inactive | 
5 | CC12CN3CC(C)(CN(C1)C31CCOCC1)C2=O | inconclusive: 4.47 µM [inhibitor, single point] | 
6 | CCOC(=O)c1ccc(N2C(=O)CC(N3CC=C(c4ccc(F)cc4)CC3)C2=O)cc1 (centres undefined) | inconclusive: 35.5 µM [inhibitor, single point] | 
7 | COc1cc2c(cc1O)[C@@H]1Cc3ccc(OC)c(O)c3CN1CC2 | inconclusive: 15.8 µM [inhibitor, partial curve] | 
8 | Cc1cc(Oc2cc(NN3CCCCC3)c([N+](=O)[O-])cc2[N+](=O)[O-])ccc1[N+](=O)[O-] | inconclusive: 28.2 µM [inhibitor, single point] | 
9 | Cc1cc(/C=C2\C(=O)NC(=O)N(c3cccc(F)c3)C2=O)c(C)n1-c1ccc(C(=O)O)c(Cl)c1 | inconclusive: 31.6 µM [inhibitor, single point] | 
10 | COc1ccc(CN2C(=O)NC(=O)/C(=C/c3ccc([N+](=O)[O-])s3)C2=O)cc1 | active: 28.2 µM | 
11 | COc1ccc(C(=O)NC(=S)N2C[C@H]3C[C@H](C2)c2cccc(=O)n2C3)cc1OC | inactive | 
12 | CC1Oc2cc3c(-c4c(O)cc(O)c5c(O)c6c(cc45)OC(C)C(C)C6=O)c(O)cc(O)c3c(O)c2C(=O)C1C (centres undefined) | active: 2 µM | 
13 | O=C1NC(=O)N(Cc2ccco2)C(=O)/C1=C/c1ccc(-c2cccc([N+](=O)[O-])c2)o1 | active: 28.2 µM | 
14 | CCCCN1C(=O)/C(=C\c2ccco2)C(=O)N(CCc2ccccc2)C1=O | inconclusive: 31.6 µM [inhibitor, single point] | 
15 | Ic1ccccc1CN[C@@H]1C2CCN(CC2)[C@@H]1C(c1ccccc1)c1ccccc1 | inactive | 
16 | CCCCCCCSc1cc(OC)c(CCNC)cc1OC | inactive | 
17 | CN1C(=O)NC(=O)/C(=C\C=C\c2ccccc2[N+](=O)[O-])C1=O | inactive | 
18 | Cc1ccc(/C=C2\C(=O)NC(=S)N(c3ccc(F)cc3)C2=O)o1 | active: 15.8 µM | 
19 | COc1ccc2[nH]c(C)c(CCN3CCC(=O)C(C)C3C)c2c1 (centres undefined) | inactive | 
20 | COc1ccc(CN2C(=O)CC(=O)NC2=S)cc1 | inconclusive: 10 µM [inhibitor, partial curve] | 
21 | Cc1[nH]n(-c2ccccc2)c(=O)c1C(c1ccc([N+](=O)[O-])cc1)c1c(C)[nH]n(-c2ccccc2)c1=O | inconclusive: 10 µM [inhibitor, partial curve] | 
22 | C=CCN1C(=O)NC(=O)/C(=C/c2ccoc2)C1=O | active: 22.4 µM | 
23 | CCC1=C(C)C(N2CCOCC2)=NP(N2CCOCC2)(N2CCOCC2)=N1 | inconclusive: 39.8 µM [inhibitor, single point] | 
24 | CCn1c(P(C)(=O)O)nc2ccccc21 | inactive | 
25 | Cc1c(N=Nc2c(O)n(-c3ccc(Br)cc3)c(=O)[nH]c2=O)c(=O)n(-c2ccccc2)n1C | inconclusive: 25.1 µM [inhibitor, single point] | 

Row | Structure (SMILES) | Potency | activity, negative = inhibition
26 | C/C(=N\Nc1ccccc1)c1c(O)n(Cc2ccccc2)c(=O)[nH]c1=O | inactive | 
27 | Cc1cccc(NP(=O)(Oc2ccccc2F)Oc2ccccc2F)c1 | inactive | 
28 | N#Cc1c(/N=C/c2c(O)n(Cc3ccco3)c(=O)[nH]c2=O)sc2c1CCCC2 | active: 14.1 µM | 
29 | O=C(O)c1cccc2c1NC(c1cccc([N+](=O)[O-])c1)C1CC(Sc3ccccc3[N+](=O)[O-])C(Cl)C21 (centres undefined) | active: 20 µM | 
30 | CCOc1ccc2oc(C(=O)NN3C(C)CCCC3C)c(C)c2c1 (centres undefined) | inconclusive: 0.794 µM [inhibitor, full curve, poor fit] | 
31 | NNC(=O)c1ccc(Cl)cc1 | inconclusive: 0.631 µM [inhibitor, single point] | 
32 | CCCCc1ccc(C(=O)O)nc1 | active: 8.91 µM | 
33 | CN(C)[C@@H]1C(=O)C(C(N)=O)=C(O)[C@@]2(O)C(=O)C3=C(O)c4c(O)ccc(Cl)c4[C@@](C)(O)C3C[C@@H]12 (some centres undefined) |  | inconclusive: -86.2% [inhibitor]
34 | CCCCN1C(=O)/C(=C/c2ccc(N(C)C)cc2)C(=O)N(Cc2ccco2)C1=O | inconclusive: 31.6 µM [inhibitor, single point] | 
35 | CCCC(CCC)C(=O)OC[N+](C)(C)CCOC(=O)C(O)(c1ccccc1)C1CCCC1 (centres undefined) | inconclusive: 8.91 µM [inhibitor, partial curve] | 
36 | Cc1ccccc1[N+](=O)[O-] | inactive | 
37 | O=P(Oc1ccccc1)(Oc1ccccc1)c1ccccc1 | inactive | 
38 | Cn1c(=O)oc2cc(S(=O)(=O)N3CCC(C(=O)N4CCN(c5ccccc5)CC4)CC3)ccc21 | inconclusive: 39.8 µM [inhibitor, single point] | 
39 | Cc1sc2c(c1C)C(c1cccs1)=NCC(=O)N2CC(=O)NCc1cccs1 | inactive | 
40 | N#CC1(c2ccccc2)CCN(C2CC(=O)N(c3ccc4c(c3)OCO4)C2=O)CC1 (centres undefined) | inactive | 
41 | CCc1cccc(C)c1NC(=S)N1CC2CC(C1)c1cccc(=O)n1C2 (centres undefined) | inactive | 
42 | O=C(N=Nc1c(O)[nH]c(=O)[nH]c1=O)C1COc2cc3ccccc3cc2O1 (centres undefined) | inconclusive: 15.8 µM [inhibitor, single point] | 
43 | O=C(N/N=C/c1c(O)n(Cc2ccc(F)cc2)c(=O)[nH]c1=O)c1ccccc1O | inactive | 
44 | Cc1ccc(S(=O)(=O)NN)c(C)c1N1CCCC1=O | inactive | 
45 | O=C1NC(=O)N(c2ccc(Cl)cc2)C(=O)/C1=C\c1ccc(Sc2nc3ccccc3[nH]2)o1 | inconclusive: 39.8 µM [inhibitor, single point] | 
46 | Nc1c(C(=O)NCC2CCCO2)c2nc3ccccc3nc2n1Cc1ccco1 (centres undefined) | inactive | 
47 | O=[N+]([O-])c1ccc(N2CCCCC2)c2ncccc12 | inactive | 
48 | O=C1NC(=O)C(=Cc2ccc(-c3cc(Cl)ccc3[N+](=O)[O-])o2)C(=O)N1 | inconclusive: 3.16 µM [inhibitor, full curve, poor fit] | 
49 | CC(C)CCn1c(N)c(C(=O)NCc2cccs2)c2nc3ccccc3nc21 | inconclusive: 10 µM [inhibitor, partial curve] | 
50 | Cc1c(C(=O)O)cccc1-n1c(C)cc(/C=C2\C(=O)NC(=O)N(c3ccc4c(c3)OCO4)C2=O)c1C | active: 14.1 µM | 

Row | Structure (SMILES) | Potency | activity, negative = inhibition
51 | Fc1ccc(N2CCN(Cc3cc4c(cc3Br)OCO4)CC2)cc1 | inactive | 
52 | CCC(C)/C=C(C)/C=C/C1=CC2=C(Cl)C(=O)C(C)(OC(C)=O)C(=O)C2=CO1 (centres undefined) | inconclusive: 14.1 µM [inhibitor, partial curve] | 
53 | CCn1nc(/C=C/c2ccccc2)nc2c(=O)n(C)c(=O)nc1-2 | inactive | 
54 | Cc1cccc(-n2c(O)c(/C=C/C=Nc3ccccc3)c(=O)[nH]c2=O)c1 | inactive | 
55 | N=c1ccccn1Cc1ccccc1 | inconclusive: 5.01 µM [inhibitor, full curve] | 
56 | C=CC[n+]1c(-c2ccc(C)cc2)csc1Nc1c(C)n(C)n(-c2ccccc2)c1=O | inconclusive: 20 µM [inhibitor, single point] | 
57 | Cn1c(O)c(/C=C2\C=Nc3ccccc32)c(=O)n(C)c1=O | inactive | 
58 | Cc1ccc(N2C(=O)/C(=C/c3ccc(CN(CCC#N)S(C)(=O)=O)o3)C(=O)NC2=S)cc1C | inconclusive: 28.2 µM [inhibitor, single point] | 
59 | CCCCC(=O)N/N=C/c1c(O)n(CCc2ccc(OC)c(OC)c2)c(=O)[nH]c1=O | inactive | 
60 | O=c1[nH]c(=S)[nH]c(O)c1C(c1ccccn1)c1c(O)[nH]c(=S)[nH]c1=O | inactive | 
61 | O=C(/C=C/c1ccccc1)c1c(O)n(CCc2ccccc2)c(=O)[nH]c1=O | inactive | 
62 | CN(C)c1ccc(C(O)P(=O)(OC2CCCCC2)OC2CCCCC2)cc1 (centres undefined) | inconclusive: 25.1 µM [inhibitor, single point] | 
63 | CC1CN(c2ccccc2)NC1=O (centres undefined) | inconclusive: 39.8 µM [inhibitor, single point] | 
64 | Cc1cc(C)cc(N2C(=O)NC(=O)/C(=C\c3cccn3-c3ccc(Cl)cc3)C2=O)c1 | inactive | 
65 | COC(=O)C1=C(c2ccc(OCc3ccccc3)cc2)C[C@@H]2CC[C@H]1N2C(=O)NCc1ccc(OC)c(OC)c1 | inactive | 
66 | NCC(O)c1cc(O)c(O)cc1F (centres undefined) | inconclusive: 0.891 µM [inhibitor, partial curve] | 
67 | Cc1ccc(C)c(NC(=S)NCCc2cnc[nH]2)c1 | inconclusive: 39.8 µM [inhibitor, partial curve] | 
68 | COc1cc(N2CCOCC2)ccc1C=C1C(=O)NC(=O)NC1=O | inactive | 
69 | Cc1cccc(N2C(=O)NC(=O)/C(=C/c3ccc([N+](=O)[O-])o3)C2=O)c1 | active: 6.31 µM | 
70 | COc1ccc(N2C(=O)NC(=O)/C(=C\c3ccccc3[N+](=O)[O-])C2=O)cc1 | inactive | 
71 | COC(=O)C(O)(c1ccc(NC(=O)Oc2ccccc2)cc1)C(F)(F)F (centres undefined) | inactive | 
72 | CCOC(=O)C1(CCCc2ccccc2)CCN(C2CCCC2)CC1 | inactive | 
73 | CC(C)CC(=O)Nc1ccc(C(=O)Cn2c(=O)oc3ccccc32)cc1 | inconclusive: 8.91 µM [inhibitor, partial curve] | 
74 | Cc1ccc(C=C2C(Cl)=C(Cl)C(Cl)=C2Cl)cc1 | active: 3.16 µM | 
